Assay results taken from PubChem BioAssay AID588855 (National Center for Advancing Translational Sciences (NCATS), 2011).
Screen size: about 410,000 compounds; about 5,000 (1.2%) were called active. This list was built around the results that the source calls inconclusive (neither active nor inactive); the mix of calls is not that of the screen. Calls come from the whole dose curve; as a rule, active = well fitted inhibition curve with a large enough effect; inconclusive = small, poorly fitted or top-dose-only effect; inactive = no such curve, though single readings can be large or run the other way. Potencies beside an inconclusive call are fits to weak or partial responses and may not hold up.
% is set by controls: 0 for no effect and ±100 for the full control effect; potency is the fitted concentration of half-maximal effect; tags give direction and shape of the fitted curve.

Assay: qHTS for Inhibitors of TGF-b; note: nearly all actives have a fitted effect of over 65% in size
Conditions: HepG2 CAGA-GFP TGF-b/SMAD3 reporter, GFP fluorescence, 18 h, TGF-beta stimulated, 500 pg/mL final; series mostly up to 46.1 µM; activity, negative = inhibition: at the top concentration
Method in brief: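 HEPG2 CAGA-GFP, 1000 cells/well; 2 h settle, 37 C; cpd via pin tool; TGF-b 500 pg/mL final; 18 h, 37 C; GFP imaging ex488/em500-530; %Activity normalised to -TGF-b and +DMSO controls; CRC fit, curve class.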
For `CCCC1(c2ccccc2)NC(=O)N(CC(=O)NCc2ccc(C)cc2)C1=O` (configuration not stated), the Potency was inconclusive: 35.5 µM [inhibitor, single point]. With `COc1cccc(CC(NC(C)=O)C(=O)NC2CCN(S(=O)(=O)c3ccc4ccccc4c3)CC2)c1` (configuration not stated) the Potency was inconclusive: 1.26 µM [inhibitor, full curve, poor fit]. With `CCOc1ccc(N(CC(=O)NCCC2=CCCCC2)S(=O)(=O)c2ccccc2)cc1` the Potency was inconclusive: 35.5 µM [inhibitor, single point]. With `Cc1ccccc1NS(=O)(=O)c1ccc(C(=O)N2CCCC2)cc1` the Potency was inconclusive: 22.4 µM [inhibitor, single point]. With `Cc1c(Cl)cccc1NC(=S)Nc1ccccn1` the Potency was inconclusive: 12.6 µM [inhibitor, single point]. In the case of `CN(C)c1cc(N/N=C/c2ccc(Cl)cc2)nc(N(C)C)n1`, the Potency is reported as inconclusive: 14.1 µM [inhibitor, partial curve, poor fit]. With `COc1ccc(C(C[N+](=O)[O-])c2c(-c3ccccc3)cc3ccccn23)c(OC)c1` (configuration not stated) the Potency was active: 10 µM. For `O=C(O)CCCC(=O)Nc1ccn(-c2ccccc2)n1`, the “activity, negative = inhibition” value was inactive: -5.03%. With `Cc1ccc(NC(=O)C2CCN(S(=O)(=O)c3ccc(C(C)(C)C)cc3)CC2)cc1S(=O)(=O)N1CCOCC1` the Potency was inconclusive: 11.2 µM [inhibitor, partial curve, poor fit]. For `CC(C)(C)c1ccc(S(=O)(=O)c2cnc(SCC(=O)Nc3ccc4c(c3)OCCO4)[nH]c2=O)cc1`, the Potency was inconclusive: 35.5 µM [inhibitor, single point]. For `O=C(CCc1ccccc1)Nc1ccncc1`, the “activity, negative = inhibition” value was inactive: -28.6%. In the case of `Cc1cc(C)cc(NS(=O)(=O)c2cnc(Cl)c(Cl)c2)c1`, the “activity, negative = inhibition” value is reported as inactive: -27.7%. In the case of `CC(/C=N/NC(=O)NC1CCCCC1)=C\c1ccccc1`, the Potency is reported as inconclusive: 35.5 µM [inhibitor, single point]. In the case of `CCCOc1ccc(NC(=O)CC2C(=O)N(c3ccc(OC)cc3)C(=O)N2CCc2ccncc2)cc1` (configuration not stated), the “activity, negative = inhibition” value is reported as inactive: -29.5%. For `CCc1nc2ccccc2n1CCCCOc1cccc(C)c1`, the Potency was inconclusive: 35.5 µM [inhibitor, single point]. For `COc1ccc(-c2nc(CSCC(=O)NC3CCCc4ccccc43)c(C)o2)cc1OC` (configuration not stated), the “activity, negative = inhibition” value was inactive: 3.23%. In the case of `O=C(Nc1cccc([N+](=O)[O-])c1)Nc1cccs1`, the Potency is reported as inconclusive: 20 µM [inhibitor, single point]. With `COc1ccc(OC)c(-c2nnc3n2N=C(c2ccc(OC)c(OC)c2)CS3)c1` the Potency was inconclusive: 1 µM [inhibitor, full curve, poor fit]. For `CCOC(=O)c1cc(-c2ccccc2)n(CCCC(=O)Nc2cccc(C)c2)c1C`, the Potency was inconclusive: 10 µM [inhibitor, partial curve]. With `Cc1nn(-c2ccccc2)nc1C(=O)c1c(C)[nH]n(-c2ccccc2)c1=O` the Potency was inconclusive: 35.5 µM [inhibitor, partial curve, poor fit]. For `CC(C)C[C@H]1CN([C@@H](CC(C)C)CN2CCC[C@@H]2CN2C(=S)NC[C@@H]2Cc2ccc(O)cc2)C(=S)N1CCc1ccccc1`, the Potency was active: 10 µM. For `Cc1cc(C)n2nc(C(=O)NCc3ccco3)cc2n1`, the Potency was inconclusive: 6.31 µM [inhibitor, single point]. With `CC1CC(NC(=O)c2c(O)nc3ccccn3c2=O)CC(C)(C)C1` (configuration not stated) the Potency was inconclusive: 4.47 µM [inhibitor, partial curve]. For `Clc1ccc(CN2CCc3nc(N4CCN(c5ccccn5)CC4)ncc3C2)cc1`, the “activity, negative = inhibition” value was inactive: -37.1%. In the case of `COc1ccccc1N1CCN(CCCNC(=O)C2CCCN(c3ncnc4c3nc3n4CCCCC3)C2)CC1` (configuration not stated), the Potency is reported as inconclusive: 8.91 µM [inhibitor, partial curve]. With `O=C(CCCOc1ccccc1)NCCc1ccccc1` the Potency was inconclusive: 0.562 µM [inhibitor, full curve, poor fit]. In the case of `COc1ccccc1NC(=O)Nc1nc(C(N)Cc2ccc(Cl)cc2)cs1` (configuration not stated), the Potency is reported as inconclusive: 25.1 µM [inhibitor, single point]. In the case of `COc1cccc(NC(=O)C2CCN(S(=O)(=O)c3ccc4c(c3)C(C)(C)C(=O)N4C)CC2)c1`, the Potency is reported as inconclusive: 10 µM [inhibitor, single point]. In the case of `Cc1cccc(Cn2ccc(N)n2)c1`, the Potency is reported as inconclusive: 22.4 µM [inhibitor, single point]. For `c1ccc(CCc2ccccc2-c2nc(-c3cccnc3)no2)cc1`, the Potency was inconclusive: 22.4 µM [inhibitor, single point]. For `O=C(Nc1ccc(C(F)(F)F)cc1)c1cc(S(=O)(=O)N2CCCc3ccccc32)ccc1F`, the Potency was inconclusive: 35.5 µM [inhibitor, single point]. For `CN(C(=O)/C=C/c1ccc([N+](=O)[O-])s1)c1ccccc1`, the Potency was active: 10 µM. For `Cc1ccc(CN2c3ccccc3-c3nc(SCC(=O)NCCc4ccccc4)ncc3S2(=O)=O)cc1`, the “activity, negative = inhibition” value was inactive: -0.355%. In the case of `CCN(CC)CCNC(=O)c1ccc(-c2nc(CN3CCc4ccccc43)c(C)o2)cc1`, the Potency is reported as inconclusive: 25.1 µM [inhibitor, single point]. In the case of `CCOC(=O)/C(=C/c1ccc(OC)cc1)NC(=O)c1ccco1`, the Potency is reported as inconclusive: 6.31 µM [inhibitor, single point]. For `O=C(Cn1nnc(-c2ccccc2)n1)Nc1cccc(S(=O)(=O)N2CCCC2)c1`, the Potency was inconclusive: 35.5 µM [inhibitor, partial curve, poor fit]. For `CCOC(=O)c1cccc(NC(=O)CSc2cc(=O)n(C)c3ccccc23)c1`, the Potency was inconclusive: 10 µM [inhibitor, partial curve, poor fit]. For `COc1cccc(C(=O)O/N=C(\N)Cc2ccc(Cl)cc2)c1`, the Potency was inconclusive: 3.16 µM [inhibitor, single point]. In the case of `CN(C)NC1=CC(=[N+]2CCCC2)CC(C)(C)C1`, the “activity, negative = inhibition” value is reported as inactive: 20.1%. In the case of `Fc1ccc(Cn2c(-c3cscn3)nc3ccccc32)c(Cl)c1`, the “activity, negative = inhibition” value is reported as inactive: 1.66%. With `Cc1ccc(/C(N)=N/OC(=O)CN(C)S(=O)(=O)c2ccc(C)cc2)cc1` the Potency was inconclusive: 12.6 µM [inhibitor, partial curve]. With `CSc1ccc(CN(C)C(=O)c2cccc(S(=O)(=O)N3CCN(Cc4ccccc4)CC3)c2)cc1` the Potency was inconclusive: 14.1 µM [inhibitor, single point].
